The % Inhibition is the drop in the measured response relative to a control, in per cent.

The campaign covered roughly 150,000 compounds. About 540 (0.36%) showed an effect of 50% or more. Some of the results follow.

The test has as its system Plasmodium falciparum. Kind of test: Primary screen in NF54 nanoGlo assay, in single point, at 2uM, 72h; a lower Z score goes with more inhibition. It is filed as functional, Erythrocyte. Particulars: timepoint 72 hour.
On to `C[C@@]1(C(=O)NCc2ccc(F)cc2)Cn2cnc(C(=O)NC3CC3)c2C(=O)N1C1CC1`, for which the “% Inhibition” value is on record as -2% and the Z score was determined as 0.21.
On the same counts, the results for `CC#CCNC(=O)Nc1ccc(C(C)(C)C#N)cc1` are -5% and 0.43.
`CCc1ccc(C(=O)NCC2(COC)CCC2)s1`: the “% Inhibition” value is -5% and the Z score is recorded as 0.7.
On the same counts, the results for `c1nc2ccc(-c3ccc4c(c3)OCO4)cc2[nH]1` are 2% and -0.29.
As to `Cc1ccc(-c2noc(-c3ccc(N4CCN(Cc5ccc6c(c5)OCO6)CC4)nc3)n2)cc1`, the “% Inhibition” value was -5% and the Z score was determined as 0.57.
In the case of `C=C(C)CN(CC)C(=O)C1(N2CCN(CC)CC2)Cc2ccccc2C1`, the “% Inhibition” value is given as -8% and the Z score is 1.1.
On the same counts, the results for `O=C(Nc1cc(C2CCCC2)[nH]n1)c1ccn(CCn2cccn2)n1` are 9% and -1.43.
Regarding `COc1cc(F)c([C@@H]2c3nc[nH]c3CCN2Cc2nccn2C)cc1OC`, the “% Inhibition” value is given as -7% and the Z score was determined as 1.29.
With `O=C(Nc1ccc(Cl)cn1)C(F)(F)OC(F)(F)C(F)(F)OC(F)(F)C(F)(F)OC(F)(F)F`, the “% Inhibition” value was determined as 30% and the Z score is recorded as -3.85.
Consider `CCc1nc(-c2ccc(NC(=O)C(C)C)cc2)n(C)n1`, for which the “% Inhibition” value is listed as -13% and the Z score came to 2.09.
On the same counts, the results for `COCCn1c(=O)c2c(ncn2Cc2cccc(C#N)c2)n(-c2ccccc2OC)c1=O` are -17% and 1.51.
On the same counts, the results for `Nc1ccc(S(=O)(=O)N2CCC[C@H](n3cccn3)C2)cc1` are -17% and 1.75.
Regarding `CCCN(CCC)C(=O)c1ccccc1Br`, the “% Inhibition” value was -5% and the Z score came to 0.99.
As for `CN(CC1CC1)S(=O)(=O)NCCc1ccccc1C(F)(F)F`, the “% Inhibition” value is -2% and the Z score stood at 0.28.
On the same counts, the results for `CCC(C)(C)CN1CCC(OC(C)(C)C)CC1` are 1% and -0.14.
On the same counts, the results for `CC(C)[C@H]1C[C@@H]1NC(=O)N1CCNC(=O)CC1` are -7% and 1.08.
On the same counts, the results for `COc1ccc(CCC(=O)Nc2cnc(-c3ccc(C)cc3)nc2)cc1` are -22% and 3.47.
As to `Cc1nnc(CCNc2ccnc(C(=O)NCc3ccncc3)c2)s1`, the “% Inhibition” value is -4% and the Z score came to 0.64.
As to `CCNC(=O)[C@@H]1C[C@@H](N)CN1C(=O)CCCC1CCCCC1`, the “% Inhibition” value is listed as 13% and the Z score was -1.72.
On to `C=C(C)CN(CC)c1nnnn1CC1CC2CCC(C1)S2(=O)=O` (configuration not stated), for which the “% Inhibition” value is listed as 2% and the Z score is -0.15.
On the same counts, the results for `CCN1CCN(C(=O)[C@H](C)N(C)Cc2cnccn2)CC1` are -19% and 1.99.
In the case of `CCOC(=O)CCNCc1cccnc1`, the “% Inhibition” value was 2% and the Z score is recorded as -0.24.
On the same counts, the results for `Cn1nc(C(=O)N2[C@H]3CCNC[C@@H]2CC3)cc1C(F)(F)F` are -14% and 2.78.
On to `O=C(Cc1cccc(Cl)c1)NC[C@@]12CNC[C@]1(C(F)(F)F)C2`, for which the “% Inhibition” value is listed as -4% and the Z score is reported as 0.55.
On the same counts, the results for `Cc1noc(CNC(=O)c2ccc(Br)o2)n1` are -18% and 2.62.
On to `COc1ccccc1-n1c(=O)n(Cc2cccc(F)c2)c(=O)c2c(C(=O)N3CCCC3)cc(C)nc21`, for which the “% Inhibition” value is -3% and the Z score amounted to 0.35.
With `CN(C)C(=O)C1CCN(Cc2coc3ccccc23)CC1`, the “% Inhibition” value is -9% and the Z score is reported as 1.42.
On the same counts, the results for `CC1CCCC(C)N(C(=O)c2cc3c(ccc4ccccc43)[nH]2)C1` (configuration not stated) are 6% and -0.97.
Consider `Cc1noc(C)c1CN(C)C(=O)NCCn1cncn1`, for which the “% Inhibition” value is given as -14% and the Z score came to 2.08.
On the same counts, the results for `Cc1c(C)c2c(c(C)c1O)CC[C@@](C)(C(=O)N(CCO)Cc1ccc(F)cc1)O2` are -7% and 1.37.
On the same counts, the results for `OCCOc1cccc(CN(Cc2cccnc2)C[C@H]2CCCN(C3CCCCC3)C2)c1` are 10% and -1.33.
On the same counts, the results for `O=C(NCCc1c[nH]c2ccccc12)C1CC2CCC1C2` (configuration not stated) are -6% and 0.61.
For `CNC/C=C/COc1ccc(C(C)C)cc1`, the “% Inhibition” value is on record as -7% and the Z score is 0.73.
Consider `COc1ccc(C2CC(=O)N(Cc3ccccc3Cl)C(=O)C2)cc1OC`, for which the “% Inhibition” value was -5% and the Z score is recorded as 0.64.
On the same counts, the results for `Cc1sc(C(=O)O)cc1CN1CCC[C@H](c2nc(C(C)C)cs2)C1` are -8% and 1.27.
On the same counts, the results for `Cc1ccsc1CN(C(=O)c1cccc[n+]1[O-])C(C)C` are 39% and -5.57.
Take `CC(C)(C)OC(=O)Nc1ccccc1O`: the “% Inhibition” value is on record as -10% and the Z score amounted to 1.4.
On the same counts, the results for `O[C@H](COc1ccc2cc(Br)ccc2c1)CN1CCN(c2ccccn2)CC1` are 2% and -0.44.
On the same counts, the results for `Clc1ccc(N2CCN(c3cc(-n4ccnc4)ncn3)CC2)cc1` are 8% and -1.07.
For the compound `CC(C)c1nnc([C@@H]2CCCN2C(=O)NCc2ccco2)[nH]1`, the “% Inhibition” value was -9% and the Z score stood at 1.11.
On the same counts, the results for `Cc1cc(NC(=O)N2CC(C)(C)[C@@H]3CCC[C@@H]32)c(=O)n(C)c1` are -10% and 2.05.
On to `CN(C)C(=O)N1CCC(c2nc([C@@H]3CN(Cc4ccccc4)CCO3)no2)CC1`, for which the “% Inhibition” value is reported as 3% and the Z score is -0.33.
For the compound `Cc1cccc(OCCCNC(=O)CO)c1C`, the “% Inhibition” value is reported as -2% and the Z score is given as 0.26.
On the same counts, the results for `Fc1ccc(OCCOCCN2CCNCC2)cc1` are -27% and 3.11.
On the same counts, the results for `CC1=C(C)C[C@@](C#N)(C(F)(F)F)[C@](C#N)(C(F)(F)F)C1` are -4% and 0.52.
For `COC[C@H]1CCCN1Cc1nc(C2(O)CCN(CC3CCCCC3)CC2)cs1`, the “% Inhibition” value turned out to be 1% and the Z score is -0.09.
With `CCCN(CC(=O)N1CCn2cccc2[C@H]1c1cccc(F)c1)C(=O)c1ccc(Cl)cc1`, the “% Inhibition” value was -10% and the Z score is reported as 1.64.
Consider `O=C(c1cc2c(ccc3ccccc32)[nH]1)N1CCC2(CCNCC2)CC1`, for which the “% Inhibition” value came out at 4% and the Z score is given as -0.81.
For the compound `CCCc1cnc(NCc2cncs2)s1`, the “% Inhibition” value was -8% and the Z score is 1.17.
On the same counts, the results for `Cc1cc(C(=O)N[C@@H](CC(F)(F)F)c2ccc(Cl)cc2)n(C)n1` are -8% and 1.55.
On to `COC(=O)c1ncccc1OCc1cc(C)no1`, for which the “% Inhibition” value is 9% and the Z score is reported as -1.63.
For the compound `NC(=O)C1(NC(=O)CN2CCN(Cc3ccccc3)CC2)CCOCC1`, the “% Inhibition” value is -9% and the Z score amounted to 1.62.
Regarding `COC(=O)C1CCC(NC(=O)NCC(F)F)C1` (configuration not stated), the “% Inhibition” value is listed as -4% and the Z score worked out at 0.65.
As for `CC(C)CN1CCN(c2nccn(C3CC3)c2=O)CC1=O`, the “% Inhibition” value is recorded as 7% and the Z score is given as -0.93.
On the same counts, the results for `COc1ccc(CN2C(=O)N[C@@H](CC(=O)Nc3ccc(OC)cc3OC)C2=O)cc1` are -3% and 0.5.
`CCOC[C@H]1CCN(C(=O)C2(O)CN(C(=O)OC(C)(C)C)C2)C1`: the “% Inhibition” value was -4% and the Z score amounted to 0.81.
Turning to `COc1ccc(CNC(=O)N(CCN2CCCC2)Cc2ccc(Cl)cc2)cc1OC`, the “% Inhibition” value is -6% and the Z score was determined as 0.65.
On the same counts, the results for `Cn1nc(C(=O)Nc2ccncc2)cc1C(=O)Nc1ccncc1` are 32% and -3.61.
On the same counts, the results for `Cc1ccc(C(=O)N2CCC[C@@]3(CCC(=O)N(CCN(C)C)C3)C2)cc1O` are -2% and 0.27.
`O=C(O)C[C@@H]1CCN(C(=O)Cc2ccccc2)C[C@@H]1CCN1CCN(c2ccccc2)CC1`: the “% Inhibition” value is on record as -11% and the Z score worked out at 1.77.
On the same counts, the results for `Cc1cccc(OCc2nc(CN(CCN3CCOCC3)C(=O)c3ccccc3F)cs2)c1` are -3% and 0.5.
On to `CC(C)N1CCC[C@H]1c1nc(-c2ccc(N(C)C)nc2)no1`, for which the “% Inhibition” value is on record as -5% and the Z score turned out to be 0.6.
On the same counts, the results for `N#Cc1ccc(CN2C(=O)NC(C3CC3)(C3CC3)C2=O)cc1` are -8% and 0.75.
On the same counts, the results for `CCCCN(CCCC)C(=O)[C@H]1CCCS(=O)(=O)C1` are 0% and -0.03.
On the same counts, the results for `CO[C@H]1C[C@H]2CC[C@@H](C1)N2C(=O)c1oc(C)nc1C` are -4% and 0.73.
As to `Cn1c(C(=O)N[C@H]2CCCNC2=O)cc2ccc(Cl)cc21`, the “% Inhibition” value turned out to be 0% and the Z score is on record as -0.02.
On the same counts, the results for `CC(C(=O)N1CCOCC1C#N)c1cccs1` (configuration not stated) are -9% and 1.42.
For `Cc1cc2c(cc1-c1c(-c3ccccc3)ncn1[C@H](C)C(N)=O)OCO2`, the “% Inhibition” value is recorded as 11% and the Z score was -1.29.
On the same counts, the results for `O=S(=O)(c1cccc(Br)c1)N1CCN(CN2CCOC2=S)CC1` are -13% and 1.49.
Consider `Cc1nnc(-c2cccc(NC(=O)[C@@H]3CCCCN3C(=O)C3=CCCCC3)c2)s1`, for which the “% Inhibition” value is on record as 7% and the Z score was -0.85.
Take `N[C@H](C(=O)NCC(F)(F)F)C1CCC1`: the “% Inhibition” value is on record as -5% and the Z score was 0.58.
On to `O=C(N[C@H]1CN[C@H](C(=O)NCc2noc(-c3ccco3)n2)C1)c1ccc(F)cc1`, for which the “% Inhibition” value is -5% and the Z score was determined as 0.88.
On the same counts, the results for `CO/C(=N/C(=O)c1cccc(OC)c1)NCCc1ccc(OC)c(OC)c1` are 2% and -0.36.
On the same counts, the results for `CC(C)(C)C(=O)N1CC(N2CCc3ccccc3C2)C1` are 0% and 0.02.
On the same counts, the results for `CN(CCn1cccn1)c1cc(C#N)c2ccccc2n1` are -9% and 1.39.
For `COc1ccc(CN2CCC3(CC2)C[C@@H]3C(=O)Nc2cccc(F)c2)cc1C`, the “% Inhibition” value is reported as 2% and the Z score is -0.25.
On the same counts, the results for `COCCn1cc(NC(=O)N(C)C2CCCCCC2)cn1` are -6% and 0.83.
On the same counts, the results for `COc1cccc2c(N3CCC(n4ccnn4)CC3)nccc12` are -18% and 1.92.
On the same counts, the results for `O=S(=O)(Nc1nnc(C2CC2)o1)c1cccc(F)c1F` are -1% and 0.11.
On to `O=C(Cc1nnc(-c2ccccc2)o1)N1CCCCCC1`, for which the “% Inhibition” value is given as -7% and the Z score turned out to be 0.9.
On the same counts, the results for `CCS(=O)(=O)c1ccc(Cl)cc1C(=O)N[C@@H](C)c1cc(C)sc1C` are 9% and -1.39.
Turning to `C[C@@H]1Oc2ccc(NS(=O)(=O)c3ccc(F)cc3)cc2CN(Cc2cc(F)cc(F)c2)C1=O`, the “% Inhibition” value came to 11% and the Z score is -1.29.
On the same counts, the results for `Clc1ccc(/C2=N/CCCCCN2)cc1` are 2% and -0.2.
Take `Cc1nc[nH]c1CN1C[C@H]2CC[C@@H](C1)N(Cc1ccc(C(C)C)cc1)C2`: the “% Inhibition” value stood at 1% and the Z score was -0.15.
On the same counts, the results for `CC1(C)COc2c(C(=O)N3CCCN(C(N)=O)CC3)cccc21` are -6% and 1.2.
On the same counts, the results for `CC(C)[C@@H](C(=O)OCc1nncn1C)N(C)C` are -15% and 1.8.

The values are drawn from ChEMBL document CHEMBL4888484, “Replenishing the malaria drug discovery pipeline: Screening and hit evaluation of the MMV Hit Generation Library 1 (HGL1) against asexual blood stage Plasmodium falciparum ,using a nano luciferase reporter read-out” (2022).
